# Laboratory results taken from the supplement of paper PMC11417369.
# The other results are listed elsewhere or left out.
# Tested on: PfSIP2 AP2 domain 1 (GST-tagged)
# Test: gcPBM binding intensity (ln(normalized median fluorescence intensity)); higher = stronger DNA binding
# Procedure, shortened: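 Each value is the highest Masliner-normalised natural-log median intensity across replicate spots of either orientation of a probe. The probes were primer-extended double-stranded 36-bp intergenic genomic sequences on an Agilent 4 × 180k array, alongside negative controls, exposed for 1 h to GST-tagged P. falciparum DNA-binding domains expressed in E. coli. Bound protein was picked up with Alexa488 anti-GST antibody and scanned at 488 nm.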
row,Sequence,gcPBM binding intensity (ln)
1,ATTAAAAAAATATACGCACACAAAATGTAATAACAA [CACACA_site2439],7.06
2,TTTTGTTTAAAAAAAAAAAACAAAAAAAAGCAATTA [CACACA_negctrl_site314],6.58
3,TTACATAATTTATGTACACACGCAAATACTTATAAT [CACACA_site4331],7.17
4,AATTATTAAATATGTACACACGTACATTTTATAAAT [CACACA_site5341],6.92
5,AGTACATTATAGAATACACACCTATATATATATATA [CACACA_site4447],9.16
6,TATTTTGTTCTTTCCACACACAAATACATATATTGT [CACACA_site4071],7.18
7,TAATACATACACACATGTACATACAGAAATAAATAA [XGTACX_site3245],7.28
8,AATATAAAAATGTTTACACACACACGGAAATATATT [CACACA_site7226],6.98
9,TAAAATTAATAAAATATTTTCACTTAATATATATAA [CACACA_negctrl_site1550],6.9
10,ATGTTGTACAAACACACACACAAAAAAAAAATAAAA [CACACA_site2406],7.34
11,ATATATATATGTGGATGTACATATATCTCTTATTAT [XGTACX_site1748],9.14
12,TTTTACATAAATTATAAATATATAAAATAAAAAAAA [CACACA_negctrl_site1499],6.76
13,TTAATATTCCAGCTTTGTACATATATATATTATAAA [XGTACX_site7954],7.18
14,TTAATGGAAAAATAGGCACACACACCGATATACATA [CACACA_site8356],6.86
15,TGGCTTTCCCTGCCGGTGCATTAACATTTTTTACAT [GTGCAC_site9914],9.58
16,CATATATATATTTTTTGTACATATATTTTTACATAT [XGTACX_site8419],7.14
17,AAAAAGAAGAAGAAATGTACGTAACTATATATTTAT [XGTACX_site4362],6.93
18,ATTGTAAGGAAACACACACACATATATATGTATATA [CACACA_site676],7.07
19,TATATGTTTAATTTCACACACAAATATGCATTTTAA [CACACA_site7881],7.04

row,Sequence,gcPBM binding intensity (ln)
1,AAATAAATACTAGGCACACACACATATATATATATA [CACACA_site2079],9.16
2,ATTATTGTAATATTAGCACACATTACCTCACTACAA [CACACA_site2560],7.11
3,ATATATATATATATATGTACGTATAATATATATATG [XGTACX_site2212],9.34
4,ATTATTCAGGTAAAGTGTACAGGAGAAAAATAAAAT [XGTACX_site334],7.24
5,CGCACCCAAATATATACACACATATATATATATATA [CACACA_site1651],9.54
6,GGAAAATGAAAACAAGGTACACATAAGAACAAACAA [XGTACX_site1221],7.37
7,AATAGGGTCATTCAAAAAAAAAAAAAATAATAATAC [CACACA_negctrl_site644],7.16
8,AAATCACATAAAAATAGTACTTTTTTTTTTTTTTTT [XGTACX_site2696],7.47
9,TGTTTTTATCCTTATGGTACAGTATAATACTTACAG [XGTACX_site6381],7.29
10,TAAAAGAAATATACATGTACATAAATATATATATAT [XGTACX_site1276],9.1
11,GCCCAACCAAAATATACACACAGTTGAATGAATAAA [CACACA_site2597],7.26
12,TATATTTGGAAATATTCTCAATTGGTACAAATAAAA [CACACA_negctrl_site1202],7.06
13,TTGGTAATAATTTGAGGTACACTGTATAAATTTTTT [XGTACX_site909],6.99
14,ATTTTTTTGTGTTTGGTACACACGTTATAAAAAATA [CACACA_site1345],7.19
15,TTTTTTTCTTAAAGATGTACTTTTTTAAAATAATCT [XGTACX_site3663],6.87
16,AATAATAAATTATGGTGTACGCATTTGTATATATAC [XGTACX_site5417],7.47
17,AAAAAAATAAAATTATATAAAATAAATTTTTATAAT [GTGCAC_negctrl_site587],6.65
18,TTTTGGATCATTTGTTGTACATATGCAAAAAAAAAA [XGTACX_site3157],7.1
19,GGAAAATACATTCCAGTGCATTAATTTATTCAACGT,8.59

row,Sequence,gcPBM binding intensity (ln)
1,TATGATACATAATATACATGCATACACAACATTCAG [TGCATGCA_site487],6.99
2,GATATGTGACGTTTGGTATTTTTGATGTTGGTAGGA [CACACA_negctrl_site1448],7.16
3,AATTCTTTTTTCAACACACACACACTAGAAAATATA [CACACA_site5681],7.29
4,TAAATACAGAAACACACACACAAATATATACATACA [CACACA_site2880],7.01
5,TTTATATATTATTAATGTACAAAATTTTTATTGCAT [XGTACX_site3329],6.96
6,ACATTAAGACACATTGCACACGTGCACCCATAGAAA [CACACA_site8029],12
7,ACCTGGACAAAAATAAATAAATAAATAAATAAATGA [GTGCAC_negctrl_site238],7.1
8,GGAATTATATGAAATAAACACACATATGTAATATTA [CACACA_site8586],6.83
9,TTTTTTTTTTTTTTGGTGCGTTTATATATAAATATA,8.81
10,AAAATCTAATATAATGCACACATAAAAAAAAAATCA [CACACA_site8871],7.17
11,TACATCGACCTATGTACATGCAAATTATTTTTATTT [TGCATGCA_site182],7.11
12,CTTTTAATATGTGTAGTGCATTTTTTTTTTTTTTTT [GTGCAC_site9727],8.98
13,AAAAAAAAAAAAAACACACACAACACCCATACCTTA [CACACA_site3621],7.34
14,GTCCTTCATCATATTTAACACACAGAGAAAAAGCGG [CACACA_site7979],7.68
15,CACCCATAAATATACACACGCACAACACAAAATAAA [CACACA_site2903],7.52
16,ATATATATATATACATGTACAAATGTATAACAAATG [XGTACX_site145],9.02
17,TTTTTTTACAACATTACACACAAATATTCTGTGTTA [CACACA_site5957],7.1
18,AGAAAATTAAAAAGAACACACAAATATATATATAAT [CACACA_site5896],6.86
19,AATCGTGTTCTGAATACACACTAATACAAATTTGTA [CACACA_site6058],6.98
